Measurements: PMC9911399, “Two distinct binding modes provide the RNA-binding protein RbFox with extraordinary sequence specificity”
Changes are numbered by the printed parent chain; changes in the protein carry UniProt numbers. The list shows a part of the results.

T1: RBFOX1 RRM RbFoxmut (Fox-RRM*) (Homo sapiens, UniProt Q9NWB1 109-208, R118D;E147R;N151S;E152T)
T1 sequence: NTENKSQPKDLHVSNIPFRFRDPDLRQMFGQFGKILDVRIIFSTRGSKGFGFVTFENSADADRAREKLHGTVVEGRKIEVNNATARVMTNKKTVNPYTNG

B1: GCUUGCG (DNA:RNA)
RNA: GGGAGACCGGAAUUCAGAUUGUCCGCUUGCGUUAAAUCCCGUCGUAGCCACCA
DNA 1: CAATCTGAATTCCGGTCTCCC
DNA 2: TGGTGGCTACGACGGGATT
B2: ACCAUGU (DNA:RNA)
RNA: B1 RNA with G25A, U27C, U28A, G29U, C30G, G31U
DNA 1: CAATCTGAATTCCGGTCTCCC
DNA 2: TGGTGGCTACGACGGGATT
B3: UGGAUGG (DNA:RNA)
RNA: B1 RNA with G25U, C26G, U27G, U28A, G29U, C30G
DNA 1: CAATCTGAATTCCGGTCTCCC
DNA 2: TGGTGGCTACGACGGGATT
B4: CACGCUG (DNA:RNA)
RNA: B1 RNA with G25C, C26A, U27C, U28G, G29C, C30U
DNA 1: CAATCTGAATTCCGGTCTCCC
DNA 2: TGGTGGCTACGACGGGATT
B5: UGCCGCC (DNA:RNA)
RNA: B1 RNA with G25U, C26G, U27C, U28C, G31C
DNA 1: CAATCTGAATTCCGGTCTCCC
DNA 2: TGGTGGCTACGACGGGATT
B6: UGAGACU (DNA:RNA)
RNA: B1 RNA with G25U, C26G, U27A, U28G, G29A, G31U
DNA 1: CAATCTGAATTCCGGTCTCCC
DNA 2: TGGTGGCTACGACGGGATT
B7: AACGACU (DNA:RNA)
RNA: B1 RNA with G25A, C26A, U27C, U28G, G29A, G31U
DNA 1: CAATCTGAATTCCGGTCTCCC
DNA 2: TGGTGGCTACGACGGGATT
B8: GAUGUGU (DNA:RNA)
RNA: B1 RNA with C26A, U28G, G29U, C30G, G31U
DNA 1: CAATCTGAATTCCGGTCTCCC
DNA 2: TGGTGGCTACGACGGGATT
B9: CCCAAGC (DNA:RNA)
RNA: B1 RNA with G25C, U27C, U28A, G29A, C30G, G31C
DNA 1: CAATCTGAATTCCGGTCTCCC
DNA 2: TGGTGGCTACGACGGGATT
B10: GCUCCCA (DNA:RNA)
RNA: B1 RNA with U28C, G29C, G31A
DNA 1: CAATCTGAATTCCGGTCTCCC
DNA 2: TGGTGGCTACGACGGGATT
B11: UAUGGGC (DNA:RNA)
RNA: B1 RNA with G25U, C26A, U28G, C30G, G31C
DNA 1: CAATCTGAATTCCGGTCTCCC
DNA 2: TGGTGGCTACGACGGGATT
B12: ACGAAGC (DNA:RNA)
RNA: B1 RNA with G25A, U27G, U28A, G29A, C30G, G31C
DNA 1: CAATCTGAATTCCGGTCTCCC
DNA 2: TGGTGGCTACGACGGGATT
B13: CCUGUUU (DNA:RNA)
RNA: B1 RNA with G25C, U28G, G29U, C30U, G31U
DNA 1: CAATCTGAATTCCGGTCTCCC
DNA 2: TGGTGGCTACGACGGGATT
B14: UUCCGGA (DNA:RNA)
RNA: B1 RNA with G25U, C26U, U27C, U28C, C30G, G31A
DNA 1: CAATCTGAATTCCGGTCTCCC
DNA 2: TGGTGGCTACGACGGGATT
B15: ACAAUCU (DNA:RNA)
RNA: B1 RNA with G25A, U27A, U28A, G29U, G31U
DNA 1: CAATCTGAATTCCGGTCTCCC
DNA 2: TGGTGGCTACGACGGGATT
B16: UGCGAAG (DNA:RNA)
RNA: B1 RNA with G25U, C26G, U27C, U28G, G29A, C30A
DNA 1: CAATCTGAATTCCGGTCTCCC
DNA 2: TGGTGGCTACGACGGGATT
B17: UGACCCG (DNA:RNA)
RNA: B1 RNA with G25U, C26G, U27A, U28C, G29C
DNA 1: CAATCTGAATTCCGGTCTCCC
DNA 2: TGGTGGCTACGACGGGATT
B18: UAACUAC (DNA:RNA)
RNA: GGGAGACCGGAAUUCAGAUUGUCCUAACUACUUAAAUCCCGUCGUAGCCACCA
DNA 1: CAATCTGAATTCCGGTCTCCC
DNA 2: TGGTGGCTACGACGGGATT
B19: CCAAGUC (DNA:RNA)
RNA: B1 RNA with G25C, U27A, U28A, C30U, G31C
DNA 1: CAATCTGAATTCCGGTCTCCC
DNA 2: TGGTGGCTACGACGGGATT
B20: UACUAGA (DNA:RNA)
RNA: B18 RNA with A27C, C28U, U29A, A30G, C31A
DNA 1: CAATCTGAATTCCGGTCTCCC
DNA 2: TGGTGGCTACGACGGGATT
B21: AUCAAGG (DNA:RNA)
RNA: B1 RNA with G25A, C26U, U27C, U28A, G29A, C30G
DNA 1: CAATCTGAATTCCGGTCTCCC
DNA 2: TGGTGGCTACGACGGGATT
B22: CUAUGCG (DNA:RNA)
RNA: B1 RNA with G25C, C26U, U27A
DNA 1: CAATCTGAATTCCGGTCTCCC
DNA 2: TGGTGGCTACGACGGGATT
B23: CAGGUGA (DNA:RNA)
RNA: B18 RNA with U25C, A27G, C28G, A30G, C31A
DNA 1: CAATCTGAATTCCGGTCTCCC
DNA 2: TGGTGGCTACGACGGGATT
B24: UGGGGCC (DNA:RNA)
RNA: B1 RNA with G25U, C26G, U27G, U28G, G31C
DNA 1: CAATCTGAATTCCGGTCTCCC
DNA 2: TGGTGGCTACGACGGGATT
B25: ACCCCGU (DNA:RNA)
RNA: B1 RNA with G25A, U27C, U28C, G29C, C30G, G31U
DNA 1: CAATCTGAATTCCGGTCTCCC
DNA 2: TGGTGGCTACGACGGGATT
B26: GAGGAGC (DNA:RNA)
RNA: B18 RNA with U25G, A27G, C28G, U29A, A30G
DNA 1: CAATCTGAATTCCGGTCTCCC
DNA 2: TGGTGGCTACGACGGGATT
B27: CCCCCAC (DNA:RNA)
RNA: B18 RNA with U25C, A26C, A27C, U29C
DNA 1: CAATCTGAATTCCGGTCTCCC
DNA 2: TGGTGGCTACGACGGGATT
B28: GGCUGCC (DNA:RNA)
RNA: B1 RNA with C26G, U27C, G31C
DNA 1: CAATCTGAATTCCGGTCTCCC
DNA 2: TGGTGGCTACGACGGGATT
B29: UCUUGUU (DNA:RNA)
RNA: B1 RNA with G25U, C30U, G31U
DNA 1: CAATCTGAATTCCGGTCTCCC
DNA 2: TGGTGGCTACGACGGGATT
B30: UUUCGUU (DNA:RNA)
RNA: B1 RNA with G25U, C26U, U28C, C30U, G31U
DNA 1: CAATCTGAATTCCGGTCTCCC
DNA 2: TGGTGGCTACGACGGGATT
B31: GGCCGUC (DNA:RNA)
RNA: B1 RNA with C26G, U27C, U28C, C30U, G31C
DNA 1: CAATCTGAATTCCGGTCTCCC
DNA 2: TGGTGGCTACGACGGGATT

Each binder was assayed against T1, RBFOX1 RRM RbFoxmut (Fox-RRM*) (assay: EMSA; HiTS-Eq, 1 nM pool, 10 min; buffer printed only for the single-RNA assays: 10 mM Tris pH 7.5, 150 mM NaCl, 3.4 mM EDTA, 0.001% NP-40, 30 C). Details: tags: His6 N-terminal (pET28a); label: 5' 32P.
In short: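 Purified RbFox RRM, wild type or mutant, was incubated for 10 min in 50 µL with 1 nM of a 5′-radiolabelled RNA pool carrying 7 randomized nucleotides, whose flanks were annealed to DNA oligonucleotides, over a series of increasing protein concentrations. Unbound RNA was resolved on 8% native PAGE, cut out, reverse-transcribed, barcoded by PCR and sequenced on an Illumina HiSeq 2500. Relative association constants were derived from changes in read counts for each RNA species versus the control reaction and normalised to the cognate motif.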

| Binder | binding signal |
| --- | --- |
| B1 | 0.148 KA relative to UGCAUGU |
| B2 | 0.102 KA relative to UGCAUGU |
| B3 | 0.332 KA relative to UGCAUGU |
| B4 | 0.109 KA relative to UGCAUGU |
| B5 | 0.121 KA relative to UGCAUGU |
| B6 | 0.0604 KA relative to UGCAUGU |
| B7 | 0.0397 KA relative to UGCAUGU |
| B8 | 0.155 KA relative to UGCAUGU |
| B9 | 0.052 KA relative to UGCAUGU |
| B10 | 0.0854 KA relative to UGCAUGU |
| B11 | 0.0938 KA relative to UGCAUGU |
| B12 | 0.0813 KA relative to UGCAUGU |
| B13 | 0.098 KA relative to UGCAUGU |
| B14 | 0.0507 KA relative to UGCAUGU |
| B15 | 0.0559 KA relative to UGCAUGU |
| B16 | 0.0938 KA relative to UGCAUGU |

| Binder | binding signal |
| --- | --- |
| B17 | 0.0559 KA relative to UGCAUGU |
| B18 | 0.0617 KA relative to UGCAUGU |
| B19 | 0.0772 KA relative to UGCAUGU |
| B20 | 0.0942 KA relative to UGCAUGU |
| B21 | 0.0887 KA relative to UGCAUGU |
| B22 | 0.116 KA relative to UGCAUGU |
| B23 | 0.114 KA relative to UGCAUGU |
| B24 | 0.349 KA relative to UGCAUGU |
| B25 | 0.121 KA relative to UGCAUGU |
| B26 | 0.095 KA relative to UGCAUGU |
| B27 | 0.0595 KA relative to UGCAUGU |
| B28 | 0.179 KA relative to UGCAUGU |
| B29 | 0.131 KA relative to UGCAUGU |
| B30 | 0.106 KA relative to UGCAUGU |
| B31 | 0.123 KA relative to UGCAUGU |
